Target: T1, Human C3dg-biotin (human, UniProt P01024 in part, biotin (site not stated) in the SPR experiments)
T1 construct: domain: C3dg; In the ELISA it is purified C3dg coated on wells; also called C3dg ligand; CR2 ligand C3dg
Test: ELISA, wells coated with purified C3dg, anti-human Fc antibodies
Description: In ELISA experiments, CR2-Fc was added to wells coated with purified C3dg. Binding was detected by means of anti-human Fc antibodies and enzyme-conjugated secondary antibodies. CR2-Fc bound to C3d.

T1 sequence (P01024 955-1303 limits assumed): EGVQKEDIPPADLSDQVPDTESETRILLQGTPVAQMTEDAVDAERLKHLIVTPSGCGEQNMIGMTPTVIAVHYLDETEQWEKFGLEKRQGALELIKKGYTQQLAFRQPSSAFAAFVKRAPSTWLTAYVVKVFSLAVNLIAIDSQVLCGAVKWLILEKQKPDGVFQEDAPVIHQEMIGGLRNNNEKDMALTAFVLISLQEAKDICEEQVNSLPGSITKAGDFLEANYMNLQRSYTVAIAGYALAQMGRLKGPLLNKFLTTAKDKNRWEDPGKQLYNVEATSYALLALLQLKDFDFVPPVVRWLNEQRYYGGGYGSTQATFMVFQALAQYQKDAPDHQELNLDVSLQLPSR

- binding result: binds
B1: CR2-human IgG1 Fc (Fc fusion)
chain: ISCGSPPPILNGRISYYSTPIAVGTVIRYSCSGTFRLIGEKSLLCITKDKVDGTWDKPAPKCEYFNKYSSCPEPIVPGGYKIRGSTPYRHGDSVTFACKTNFSMNGNKSVWCQANNMWGPTRLPTCVSVFPLECPALPMIHNGHHTSENVGSIAPGLSVTYSCESGYLLVGEKIINCLSSGKWSAVPPTCEEARCKSLGRFPNGKVKEPPILRVGVTANFFCDEGYRLQGPPSSRCVIAGQGVAWTKMPVCEEIFCPLRPQSR[skipping human IgG1 Fc with changes]
notes: First 4 SCRs of CR2 linked to the human IgG1 Fc region; also called CR2-Fc; Human CR2-IgG1 Fc
